This is one part of the list.

In this assay the test system is S. aureus RN4220. As to the kind of experiment: growth inhibition call (relative growth <= 0.2). The following applies: 50 µM.
In the case of `C[C@H]1CN([C@@H](C)CO)C(=O)CCCn2nncc2CO[C@H]1CN(C)S(=O)(=O)c1ccc(Oc2ccccc2)cc1`, the growth inhibition call is “inactive”. As to `C[C@@H]1CN([C@H](C)CO)C(=O)Cc2cc(NS(=O)(=O)c3ccc(F)cc3)ccc2O[C@H]1CN(C)S(C)(=O)=O`, the growth inhibition call is “inactive”. Then `Cc1n[nH]c(=O)nc1NCCCOC(C)C`, with “inactive”; and `O=C(NO)c1cccc(C(=O)N/N=C/[C@H](O)[C@@H](O)[C@@H](O)[C@H](O)C(=O)O)c1`, with “inactive”; and `CCNC(=O)C[C@@H]1CC[C@H](NC(=O)C2CCOCC2)[C@@H](CO)O1`, with “inactive”.

For the molecule `C[C@H](CO)N1C[C@H](C)[C@H](CN(C)C(=O)Nc2cccc3ccccc23)Oc2ccc(NC(=O)Cc3ccccc3)cc2C1=O`, the growth inhibition call was “inactive”.

Regarding `CC(C)CC#Cc1ccc2c(c1)O[C@@H](CN(C)C(=O)C1CCOCC1)[C@H](C)CN([C@@H](C)CO)S2(=O)=O`, the growth inhibition call is “inactive”. Then `C[C@@H]1CCCCO[C@@H](CN(C)C(=O)C2CCCCC2)[C@@H](C)CN([C@H](C)CO)C(=O)c2cc(NC(=O)Nc3ccc(F)cc3)ccc2O1`, with “inactive”; and `CN1CC(=O)NC1=N`, with “inactive”. Then `Cc1ccc(S(=O)(=O)N[C@@H]2CC[C@@H](CC(=O)N3CCC(Cc4ccccc4)CC3)O[C@H]2CO)cc1`, with “inactive”; and `C[C@@H]1CCCCO[C@@H](CN(C)S(=O)(=O)c2ccc(Cl)cc2)[C@H](C)CN([C@H](C)CO)C(=O)c2cc(NC(=O)CCC(F)(F)F)ccc2O1`, with “inactive”; and `O=C(O)CN(CCN(CC(=O)O)CC(=O)O)CC(=O)O.[Na+].[Na+]`, with “inactive”. Then `COc1ccc(S(=O)(=O)N(C)C[C@@H]2Oc3c(NS(=O)(=O)c4ccccc4)cccc3C(=O)N([C@@H](C)CO)C[C@@H]2C)cc1`, with “inactive”.

Source of the values: the antibiotic and cytotoxicity screens of Wong et al. (2023).
